Assay results from PubChem BioAssay AID485364 (National Center for Advancing Translational Sciences (NCATS), 2010).
In all, about 360,000 compounds went through this assay and about 11,000 (3.1%) were called active. Inconclusive results, whose numbers are uncertain, are shown with a selection of clear calls. The call rests on the fitted dose curve; in most records, active means well fitted inhibition curve with a large enough effect; inconclusive means small, poorly fitted or top-dose-only effect; inactive means no such curve, though single readings can be large or run the other way. Potencies of inconclusive entries are left out as doubtful fits.

biological target: Schistosoma mansoni thioredoxin glutathione reductase (TGR) (UniProt Q962Y6); experiment: qHTS Assay for the Inhibitors of Schistosoma Mansoni Peroxiredoxins; conditions: purified TGR, DTNB reduction, TNB absorbance 405 nm; activity change, negative = inhibition: at 114 µM (top of the series) unless noted; further: nearly all actives have a fitted effect of over 60% in size
In short: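 Kinetic colorimetric format: TGR-catalysed, NADPH-driven DTNB reduction monitored via TNB absorbance. Enzyme dispensed at 20 nM; compound exposure 15 min at room temperature before reaction start.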
On the % scale 0 is the no-effect control and ±100 the full control effect; potency means the concentration at half of the fitted maximal effect; tags describe the fitted curve by direction and shape.

SMILES	Potency	activity change, negative = inhibition
Cc1ccccc1CN1CCN(Cc2ccc3cccc(F)c3n2)CC1CCO (stereo not given)	inconclusive [inhibitor, partial curve, poor fit]	–
O=[N+]([O-])c1ccc(/C=N/NC(=S)Nc2ccccc2)o1	inconclusive [inhibitor, partial curve]	–
COc1ccc(C=NCCCN2CCOCC2)cc1	inconclusive [inhibitor, partial curve]	–
Cc1ccc(OCCC(=O)N2CCN(c3ccc(O)cc3)CC2)cc1	inconclusive [inhibitor, partial curve]	–
COc1cc(OC)c(NC(=O)c2c3c(nc4ccccc24)C(=O)N(C2CCCCC2)C3)cc1Cl	inconclusive [inhibitor, single point]	–
O=C(NCC(c1ccco1)N1CCc2ccccc2C1)c1cccc([N+](=O)[O-])c1 (stereo not given)	active: 39.8 µM	–
CCOCCCNC(=O)C1(O)c2ccccc2NC(=O)N1c1ccc(Cl)cc1 (stereo not given)	–	inactive: -0.795%
CCOC(=O)c1ccccc1NC(=O)c1nn(C)c2c1COc1ccccc1-2	inconclusive [inhibitor, partial curve]	–
COc1ccc(-n2c(CCC(=O)O)ccc2-c2ccccc2)c(OC)c1	active: 8.91 µM	–
CCC(=O)c1ccc(N2CCN(C(=O)c3ccc(Br)cc3)CC2)c(F)c1	inconclusive [inhibitor, full curve, poor fit]	–
c1csc(CNc2ccc3c(c2)OCCO3)c1	–	inactive: 31.2%
Cc1ccccc1NC(=O)CSc1nnc(-c2ccco2)c(-c2ccco2)n1	active: 3.55 µM	–
COc1ccccc1Nc1nc2c(s1)CCC2	inconclusive [inhibitor, partial curve]	–
Cc1ccc(-n2c(O)c(/C=N/Nc3ccccc3)c(=O)[nH]c2=O)cc1C	inconclusive [inhibitor, partial curve]	–
O=C1c2oc3ccccc3c(=O)c2C(c2cccs2)N1CCCN1CCOCC1 (stereo not given)	inconclusive [inhibitor, partial curve]	–
CC1CCCC(C)N1CC(O)Cn1c2ccccc2c2ccccc21 (stereo not given)	inconclusive [inhibitor, partial curve]	–
Cc1ccc(C(=O)CCNc2ccc(F)c(Cl)c2)o1	inconclusive [inhibitor, partial curve]	–
Cc1c(CN2CCN(CC(C)(C)C)C(CCO)C2)[nH]c2ccccc12 (stereo not given)	inconclusive [inhibitor, partial curve]	–
COc1ccc(N2CCN(C(=O)c3sc4ncn(CC(=O)N5CCCCC5C)c(=O)c4c3C)CC2)cc1 (stereo not given)	inconclusive [inhibitor, partial curve]	–
CCc1ccc(C(=O)CSC2=C(C#N)C(c3ccco3)C(C(C)=O)=C(C)N2)cc1 (stereo not given)	inconclusive [inhibitor, partial curve]	–
Cc1ccc(N2C(=O)CC(Sc3nc(C)cc(C)n3)C2=O)cc1 (stereo not given)	–	inactive: -46.3%
Cc1cc(C)nc(-n2nc(C)cc2NC(=O)CN2CCc3ccccc3C2)n1	inconclusive [inhibitor, partial curve]	–
Cc1oc(C(C)(C)C)cc1C(=O)Nc1ccc2c(c1)OCO2	inconclusive [inhibitor, partial curve]	–
COc1cc(/C=C2/C(=O)NC(=O)N(c3ccccc3)C2=O)ccc1O	inconclusive [inhibitor, full curve, poor fit]	–

SMILES	Potency	activity change, negative = inhibition
CCCCN1C(=O)C(NC(=O)C2CC2)(C(F)(F)F)C2=C1CC(C)(C)CC2=O (stereo not given)	inconclusive [inhibitor, partial curve]	–
COc1ccc(OC)c(CNC(=O)Cc2c(C(=O)O)[nH]c3ccccc23)c1	–	inactive: 25.2%
COCCn1c(N/N=C(C)/C=C/c2ccccc2)nc2c1c(=O)[nH]c(=O)n2C	active: 25.1 µM	–
O=C(Cc1ccccc1)Nc1scc(-c2ccccc2)c1C(=O)N1CCOCC1	–	inactive: -6.01%
O=C(NCCS(=O)(=O)N1CCN(c2ccccc2F)CC1)C(c1ccccc1)c1ccccc1	–	inactive: -0.581%
COc1ccccc1C(=O)N(Cc1ccc(C)o1)C1CCS(=O)(=O)C1 (stereo not given)	inconclusive [inhibitor, full curve, poor fit]	–
O=C1CC(c2ccc3c(c2)OCCO3)Oc2ccc([N+](=O)[O-])cc21 (stereo not given)	active: 89.1 µM	–
COc1ccccc1C(=O)OCC(=O)Nc1cc(S(=O)(=O)N2CCOCC2)ccc1N1CCCC1	–	inactive: -4.51%
Cc1nn(C)c(Oc2cccc(Cl)c2)c1C#N	–	inactive: 7.54%
O=C(O)/C=C/C(=O)NNC(=O)c1cccc(Br)c1	inconclusive [inhibitor, partial curve]	–
Cc1nc2sc(C(c3ccco3)N3CC(C)OC(C)C3)c(O)n2n1 (stereo not given)	active: 44.7 µM	–
CCn1ccc(C(=O)Nc2ncc(C)s2)n1	inconclusive [inhibitor, full curve, poor fit]	–
CCN(CC)CCN1C(=O)C(=O)/C(=C(/O)c2cnn(-c3ccccc3)c2C)C1c1ccc(C)o1 (stereo not given)	inconclusive [inhibitor, partial curve]	–
Cc1ccc(S(=O)(=O)N(C)CC(=O)N/N=C/c2ccc(C)o2)cc1	inconclusive [inhibitor, partial curve]	–
CC(=O)Nc1c2c(nn1-c1ccc(C)cc1C)CS(=O)C2 (stereo not given)	inconclusive [inhibitor, partial curve]	–
Cc1nn(Cc2ccc(C(=O)NC(C)(C)C)o2)c(C)c1Br	inconclusive [inhibitor, full curve]	–
COc1ccc(C(=O)Nc2ccccc2N2CCN(C(=O)C(C)C)CC2)cc1Cl	–	inactive: 3.09%
O=C1c2ccccc2C(=O)N1CCc1csc(NNc2nc(CCN3C(=O)c4ccccc4C3=O)cs2)n1	inconclusive [inhibitor, partial curve]	–
CCCCN1C(=O)c2[nH]nc(-c3ccccc3O)c2C1c1cc(Br)c(O)c(OC)c1 (stereo not given)	active: 56.2 µM	–
Cc1occc1C(=O)NNC(=S)NC(=O)COc1ccc(Cl)cc1Cl	inconclusive [inhibitor, partial curve, poor fit]	–
COc1ccc(C(C)=O)cc1COC(=O)c1c(C)noc1C	inconclusive [inhibitor, single point]	–
COC(=O)c1ccc(-c2nc(CN3CCCN(C(=O)c4ccco4)CC3)c(C)o2)cc1	inconclusive [inhibitor, partial curve]	–
O=C1NC(c2ccccc2)=N/C1=C/c1ccco1	active: 50.1 µM	–
Cc1ccc(C(=O)NC(=S)Nc2ccc(CN3CCOCC3)cc2)cc1	inconclusive [inhibitor, full curve, poor fit]	–

SMILES	Potency	activity change, negative = inhibition
Cc1cccc2sc(N(CCN3CCOCC3)C(=O)CCS(=O)(=O)c3ccccc3)nc12	active: 44.7 µM	–
FC(F)(F)c1ccc(C2Nc3cccc4cccc(c34)N2)cc1	active: 20 µM	–
CCCCCc1ccc(-c2ccc(/C=C/C(N)=O)cc2)nc1	–	inactive: -1.35%
Cc1cc(C)cc(OCC(O)CN2CCC(CN3C(=O)c4cccc5cccc(c45)C3=O)CC2)c1 (stereo not given)	–	inactive: 0%
Cc1ccc(NC(=O)CSc2nnc(CNC(=O)c3ccco3)n2C)c(C)c1	inconclusive [inhibitor, partial curve]	–
CC(NC(=O)CNC(=O)c1ccc2c(c1)OCO2)c1ccc(S(N)(=O)=O)cc1 (stereo not given)	inconclusive [inhibitor, partial curve, poor fit]	–
COc1ccc(/C=C/c2ccccc2)cc1[C@H]1[C@H]2C=CC[C@@H](C)[C@@H]2C(=O)N1Cc1ccccc1	inconclusive [inhibitor, partial curve]	–
S=C(NCCc1c[nH]c2ccccc12)NC1CCCCC1	–	inactive: 2.27%
COc1ccc2c(c1)OC(O)(C(F)(F)F)CC2=O (stereo not given)	inconclusive [inhibitor, partial curve]	–
O=C(COC(=O)CSc1ccc([N+](=O)[O-])cc1)NCCCc1ccccc1	–	inactive: -11%
COc1cc2c(cc1OC)C1=CC(=O)C(=O)N1C(C)(C)C2	inconclusive [inhibitor, partial curve]	–
COc1ccc(CN2CCNC(=O)C2CC(=O)N(C)Cc2nccs2)cc1OC (stereo not given)	inconclusive [inhibitor, partial curve, poor fit]	–
CCC(=O)Oc1oc(-c2ccccc2)nc1C=Nc1ccccc1OC	–	inactive: -33.1%
Cc1cc(C)cc(-n2ccnc2SCC(=O)Nc2nnc(C)s2)c1	inconclusive [inhibitor, single point]	–
COc1ccc(-n2c(SCC(=O)Nc3ccc(Cl)c(C)c3)nc3n[nH]c(C)c3c2=N)cc1	–	inactive: 5.5%
CCOC(=O)C1CCN(Cc2cc(Cl)c3ccccc3c2O)CC1	active: 4.47 µM	–
CC(C)OC(=O)c1cc(-c2ccc(C=O)o2)ccc1Cl	inconclusive [inhibitor, partial curve]	–
C#CCOc1ccc(C2C3=C(CC(C)(C)CC3=O)N(CC(=O)O)C3=C2C(=O)CC(C)(C)C3)cc1OC	active: 35.5 µM	–
COc1cc(C(=O)NCCCc2nc3ccccc3n2CC(C)C)cc(OC)c1OC	–	inactive: -12.7%
CCC(C)NC(=O)c1cn(CC)c2cc(N3CCN(C(=O)c4ccco4)CC3)c(F)cc2c1=O (stereo not given)	inconclusive [inhibitor, partial curve]	–
COC(=O)C1=C(C)NC(=O)NC1c1ccc([N+](=O)[O-])o1 (stereo not given)	inconclusive [inhibitor, partial curve]	–
COc1ccc(CCN2C(=O)CC(Sc3ncccc3C(=O)O)C2=O)cc1OC (stereo not given)	active: 11.2 µM	–
